Some of the results follow. At the low end of the ranking the order means little.
biological target: T1, GST-Rok (full length) (UniProt O34857); assay: protein binding microarray; conditions: Rok is a gene silencer of Bacillus subtilis; high values mean tight binding; most listed sequences are background and not binding sites; double strand, one strand shown;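 further: rank score from −0.5 (least bound) to 0.5 (best bound)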
T1 sequence: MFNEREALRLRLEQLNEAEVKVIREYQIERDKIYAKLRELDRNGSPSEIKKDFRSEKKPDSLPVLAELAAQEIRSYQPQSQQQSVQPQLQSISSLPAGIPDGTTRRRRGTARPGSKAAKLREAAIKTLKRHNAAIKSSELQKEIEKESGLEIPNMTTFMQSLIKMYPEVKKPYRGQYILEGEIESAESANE

Row | Sequence | binding signal [E-score]
1 | AAACGGTA | 0.226
2 | CTTCTCTA | 0.0574
3 | GTTAGCCA | -0.0296
4 | AAGGAGCG | -0.3
5 | AGTTTATG | 0.166
6 | CAGGCAGA | -0.327
7 | ACTTCCTA | 0.107
8 | AGTCTTGC | -0.0663
9 | AAGGCTCG | -0.304
10 | ACTGGCTC | -0.238
11 | CGAACTGA | -0.0407
12 | AGCTCACT | -0.0182
13 | ATGTATGC | 0.167
14 | CGCTGCGA | -0.0364
15 | GCAGATCC | 0.0551
16 | GTTTTATA | 0.141
17 | AACCTTGC | -0.0541
18 | CTATTTCA | 0.0893
19 | GACTGCCC | -0.296
20 | AATTTATA | 0.435
21 | AAGACCCG | -0.173
22 | CACGCAGG | -0.258
23 | ATATGCGA | 0.107
24 | AGGGAGAG | -0.325
25 | CATTTTTA | 0.153

Row | Sequence | binding signal [E-score]
26 | AACGACCG | -0.0771
27 | CTAGCTGC | 0.0309
28 | ACCTACAA | 0.265
29 | AATGGAGC | -0.103
30 | GCTCCACA | 0.0705
31 | AACACGTG | -0.0472
32 | AACGACCT | -0.109
33 | CGTCATGC | -0.129
34 | AGTGTTGA | 0.0228
35 | GCGGGACA | -0.302
36 | GCATAGTA | 0.187
37 | CTAGGCAG | 0.039
38 | AGATATAT | 0.395
39 | AGGTTGGG | -0.132
40 | AGTCTGTG | -0.0376
41 | AACTGGCT | -0.103
42 | AGAGTCTC | 0.0335
43 | CCTTTAAC | -0.0145
44 | AATGACAA | 0.16
45 | CACTTCCG | 0.0662
46 | CGGTCGAG | -0.153
47 | GTCCACCA | -0.277
48 | GGATTTAA | -0.0241
49 | GCGTTAGC | -0.153
50 | CAACGCCG | -0.253

Row | Sequence | binding signal [E-score]
51 | CGCCACAC | -0.0219
52 | GACGTGAC | -0.177
53 | TCCATTAA | 0.0273
54 | GTGGTTAA | -0.158
55 | CCTCTGTA | -0.0677
56 | AAGCGAGC | -0.156
57 | ACGCAAAA | 0.129
58 | ATTAGTCC | 0.0275
59 | GACCTCGC | -0.236
60 | TGAACCCA | -0.0568
61 | ATAACGAT | 0.229
62 | GGCTTGAC | -0.347
63 | ATGACATA | 0.0478
64 | AGAAACCC | 0.0446
65 | CGAGCGGA | -0.195
66 | CATTGCGC | -0.05
67 | GAAGCGTA | -0.00919
68 | TGGACGAA | -0.181
69 | GACCGTCC | -0.274
70 | CCGAGATC | 0.0548
71 | TACCAGGA | 0.119
72 | TCATTCAA | -0.111
73 | ATCTTCGG | 0.0362
74 | AGTTTATA | 0.301
75 | TGACGAAA | 0.0695

Row | Sequence | binding signal [E-score]
76 | ATCGACTC | -0.00764
77 | AGCGAACT | 0.0119
78 | ATCCAATC | 0.0269
79 | ACTTTGCA | -0.0228
80 | ACAGGCGG | -0.273
81 | AAAAGGTC | 0.0179
82 | CATCGTAG | -0.0797
83 | CGCATTCA | -0.0312
84 | CCGACTAG | -0.163
85 | AGCCCTCG | -0.407
86 | AGGTGCGC | -0.168
87 | GCAGCTAC | -0.0984
88 | CGATGTTC | 0.0493
89 | GAACAAGC | -0.0405
90 | CCGACGAG | -0.161
91 | AGTCCATG | 0.134
92 | AATATAGC | 0.32
93 | CATTACGG | -0.0492
94 | ACTTCACC | 0.0492
95 | CAAGCCCC | -0.383
96 | GCAGTGAA | -0.154
97 | AACGGCTT | -0.0354
98 | GGTTATTA | 0.179
99 | ATAACTTC | 0.244
100 | CGCTCGCC | -0.219

Row | Sequence | binding signal [E-score]
101 | TACCCCGA | -0.0867
102 | TATCACAA | 0.215
103 | AGGAGTCG | -0.17
104 | AACTGTAC | 0.188
105 | TCACGGCA | -0.0169
106 | ACAATCAA | 0.0639
107 | GCTAAGCA | -0.155
108 | CGGGCTAG | -0.0191
109 | CTCTATGA | 0.00914
110 | ACGGCTAC | -0.169
111 | TAGCTAGA | 0.254
112 | AGAGTATG | 0.059
113 | AGTGATCG | -0.00928
114 | ATTGTGCG | 0.222
115 | AACAGGCT | -0.172
116 | ATAAGCAT | 0.162
117 | CCGCATTC | -0.117
118 | TCATTCGA | 0.0561
119 | AGGATCGA | 0.0686
120 | GAAGTGTA | 0.175
121 | AACGCGGT | -0.127
122 | AGTGTAGG | 0.07
123 | AGCGATGA | 0.00993
124 | TCGTAGAA | 0.131
125 | ACCTTGAT | 0.0336

Row | Sequence | binding signal [E-score]
126 | GTACCGGA | 0.0443
127 | ATCTATGC | 0.0906
128 | ACCCCGAA | -0.31
129 | AGACACCG | -0.195
130 | AGTCAGAC | -0.25
131 | AGCAAATC | 0.0475
132 | ATCACACC | -0.038
133 | GGTATAGA | 0.222
134 | AGTCTCTC | -0.161
135 | ATATTTGA | 0.228
136 | CGTCTTCC | -0.3
137 | CCTCCCTC | -0.196
138 | CTCCCCAA | -0.19
139 | CTCTAATC | 0.152
140 | CGTCCAGA | -0.148
141 | ATAACGAG | 0.141
142 | CCTGCGAA | -0.196
143 | ATTGCAGG | -0.261
144 | CCCGGCTA | -0.11
145 | ACTCAGCT | 0.0634
146 | TCTACCAA | 0.264
147 | CGTTACCA | 0.233
148 | GTCAGGCA | -0.141
149 | CAGCTTCG | -0.109
150 | GAAGGAAA | -0.186

Row | Sequence | binding signal [E-score]
151 | TCGGCCGA | -0.217
152 | GCAAAGGC | -0.323
153 | AAGTCTGC | -0.0903
154 | TACTGTAA | 0.323
155 | AGGGTGCG | -0.191
156 | AAAACAGA | 0.0936
157 | AAGGGGCA | -0.364
158 | TGAGTGCA | -0.103
159 | CGGCAAAA | -0.156
160 | ACCAAACT | 0.19
161 | ACCCGCAT | -0.226
162 | ACCTGCCA | -0.24
163 | GGCTAAAC | -0.161
164 | TATTAGAA | 0.269
165 | AGACGAGG | -0.304
166 | GGAATCCC | -0.162
167 | CAACCGGA | -0.189
168 | ACCGTGGA | -0.0296
169 | ACAGAAGC | -0.117
170 | TCAAGAAA | -0.045
171 | GTCCGGTA | 0.0485
172 | ACTTGGTA | 0.0899

Source: publication PMC6212790
